# Test results as given in the supplement of paper PMC8728848.
# This is one part of the list.
# B1: AAL (Aleuria aurantia) (protein)
# chain: MPTEFLYTSKIAAISWAATGGRQQRVYFQDLNGKIREAQRGGDNPWTGGSSQNVIGEAKLFSPLAAVTWKSAQGIQIRVYCVNKDNILSEFVYDGSKWITGQLGSVGVKVGSNSKLAALQWGGSESAPPNIRVYYQKSNGSGSSIHEYVWSGKWTAGASFGSTVPGTGIGATAIGPGRLRIYYQATDNKIREHCWDSNSWYVGGFSASASAGVSIAAISWGSTPQIRVYWQKGREELYEAAYGGSWNTPGQIKDASRPTPSLPDTFIAANSSGNIDISVFFQASGVSLQQWQWISGKGWSIGAVVPTGTPAGW
# Assays:
# Assay in all cases: glycan array binding signal (z-score within array); higher = stronger binding
# Details in all cases: glycan notation: IUPAC condensed, linker removed; mutation: N224Q
# [1] = molecular target: Gal(b1-3)[Fuc(a1-4)]GlcNAc(b1-3)Gal(b1-4)[Fuc(a1-3)]GlcNAc
# How it was run: (§1)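 Arrays were curated from the Consortium for Functional Glycomics database, 3228 in total, and kept only where the protein sequence was available. Binding is expressed as a within-array Z-score. This score was averaged across arrays of the same protein sequence at different concentrations or buffers and across linkers, and negative values can be read as non-binding.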
# [2] = molecular target: Gal(b1-3)[Fuc(a1-4)]GlcNAc(b1-6)GalNAc
# How it was run: as §1
# [3] = molecular target: Gal(b1-3)[GlcNAc(b1-6)]GalNAc
# How it was run: as §1
# [4] = molecular target: Gal(b1-3)[Neu5Ac(a2-6)]GalNAc
# How it was run: as §1
# [5] = molecular target: Gal(b1-3)[Neu5Ac(a2-6)]GlcNAc(b1-4)Gal(b1-4)Glc
# How it was run: as §1
# [6] = molecular target: Gal(b1-3)[Neu5Ac(b2-6)]GalNAc
# How it was run: as §1
# [7] = molecular target: Gal(b1-4)Gal
# How it was run: as §1
# [8] = molecular target: Gal(b1-4)GalNAc(a1-3)[Fuc(a1-2)]Gal(b1-4)GlcNAc
# How it was run: as §1
# [9] = molecular target: Gal(b1-4)GalNAc(b1-3)[Fuc(a1-2)]Gal(b1-4)GlcNAc
# How it was run: as §1
# [10] = molecular target: Gal(b1-4)Glc
# How it was run: as §1
# [11] = molecular target: Gal(b1-4)Glc6S
# How it was run: as §1
# [12] = molecular target: Gal(b1-4)GlcNAc
# How it was run: as §1
# [13] = molecular target: Gal(b1-4)GlcNAc(a1-6)Gal(b1-4)GlcNAc
# How it was run: as §1
# [14] = molecular target: Gal(b1-4)GlcNAc(b1-2)Man
# How it was run: as §1
# [15] = molecular target: Gal(b1-4)GlcNAc(b1-2)Man(a1-3)Man(b1-4)GlcNAc(b1-4)GlcNAc
# How it was run: as §1
# [16] = molecular target: Gal(b1-4)GlcNAc(b1-2)Man(a1-3)[Gal(b1-4)GlcNAc(b1-2)Man(a1-6)]Man(b1-4)GlcNAc(b1-4)GlcNAc
# How it was run: as §1
# [17] = molecular target: Gal(b1-4)GlcNAc(b1-2)Man(a1-3)[Gal(b1-4)GlcNAc(b1-2)Man(a1-6)]Man(b1-4)GlcNAc(b1-4)[Fuc(a1-6)]GlcNAc
# How it was run: as §1
# [18] = molecular target: Gal(b1-4)GlcNAc(b1-2)Man(a1-3)[Gal(b1-4)GlcNAc(b1-2)Man(a1-6)][Gal(b1-4)GlcNAc(b1-4)]Man(b1-4)GlcNAc(b1-4)[Fuc(a1-6)]GlcNAc
# How it was run: as §1
# [19] = molecular target: Gal(b1-4)GlcNAc(b1-2)Man(a1-3)[Gal(b1-4)GlcNAc(b1-2)Man(a1-6)][GlcNAc(b1-4)]Man(b1-4)GlcNAc(b1-4)[Fuc(a1-6)]GlcNAc
# How it was run: as §1
# [20] = molecular target: Gal(b1-4)GlcNAc(b1-2)Man(a1-3)[GlcNAc(b1-2)Man(a1-6)]Man(b1-4)GlcNAc(b1-4)GlcNAc
# How it was run: as §1
# [21] = molecular target: Gal(b1-4)GlcNAc(b1-2)Man(a1-3)[GlcNAc(b1-4)][Gal(b1-4)GlcNAc(b1-2)Man(a1-6)]Man(b1-4)GlcNAc(b1-4)GlcNAc
# How it was run: as §1
# [22] = molecular target: Gal(b1-4)GlcNAc(b1-2)Man(a1-3)[Man(a1-6)]Man(b1-4)GlcNAc(b1-4)GlcNAc
# How it was run: as §1
# [23] = molecular target: Gal(b1-4)GlcNAc(b1-2)Man(a1-6)Man(b1-4)GlcNAc(b1-4)GlcNAc
# How it was run: as §1
# [24] = molecular target: Gal(b1-4)GlcNAc(b1-2)Man(a1-6)[GlcNAc(b1-2)Man(a1-3)]Man(b1-4)GlcNAc(b1-4)GlcNAc
# How it was run: as §1
# [25] = molecular target: Gal(b1-4)GlcNAc(b1-2)Man(a1-6)[Man(a1-3)]Man(b1-4)GlcNAc(b1-4)GlcNAc
# How it was run: as §1
# [26] = molecular target: Gal(b1-4)GlcNAc(b1-2)[Gal(b1-4)GlcNAc(b1-4)]Man(a1-3)[Gal(b1-4)GlcNAc(b1-2)Man(a1-6)]Man(b1-4)GlcNAc(b1-4)GlcNAc
# How it was run: as §1
# [27] = molecular target: Gal(b1-4)GlcNAc(b1-2)[Gal(b1-4)GlcNAc(b1-4)]Man(a1-3)[Gal(b1-4)GlcNAc(b1-2)[Gal(b1-4)GlcNAc(b1-6)]Man(a1-6)]Man(b1-4)GlcNAc(b1-4)GlcNAc
# How it was run: as §1
# [28] = molecular target: Gal(b1-4)GlcNAc(b1-2)[Gal(b1-4)GlcNAc(b1-4)]Man(a1-3)[GlcNAc(b1-4)][Gal(b1-4)GlcNAc(b1-2)Man(a1-6)]Man(b1-4)GlcNAc(b1-4)GlcNAc
# How it was run: as §1
# [29] = molecular target: Gal(b1-4)GlcNAc(b1-2)[Gal(b1-4)GlcNAc(b1-4)]Man(a1-3)[GlcNAc(b1-4)][Gal(b1-4)GlcNAc(b1-2)[Gal(b1-4)GlcNAc(b1-6)]Man(a1-6)]Man(b1-4)GlcNAc(b1-4)GlcNAc
# How it was run: as §1
# [30] = molecular target: Gal(b1-4)GlcNAc(b1-2)[Gal(b1-4)GlcNAc(b1-6)]Man(a1-6)[Gal(b1-4)GlcNAc(b1-2)Man(a1-3)]Man(b1-4)GlcNAc(b1-4)GlcNAc
# How it was run: as §1
# [31] = molecular target: Gal(b1-4)GlcNAc(b1-2)[Gal(b1-4)GlcNAc(b1-6)]Man(a1-6)[Gal(b1-4)GlcNAc(b1-2)Man(a1-3)]Man(b1-4)GlcNAc(b1-4)[Fuc(a1-6)]GlcNAc
# How it was run: as §1
# [32] = molecular target: Gal(b1-4)GlcNAc(b1-2)[Gal(b1-4)GlcNAc(b1-6)]Man(a1-6)[GlcNAc(b1-4)][Gal(b1-4)GlcNAc(b1-2)Man(a1-3)]Man(b1-4)GlcNAc(b1-4)GlcNAc
# How it was run: as §1
# [33] = molecular target: Gal(b1-4)GlcNAc(b1-2)[Gal(b1-4)GlcNAc(b1-6)]Man(a1-6)[GlcNAc(b1-4)][Gal(b1-4)GlcNAc(b1-2)[Gal(b1-4)GlcNAc(b1-4)]Man(a1-3)]Man(b1-4)GlcNAc(b1-4)[Fuc(a1-6)]GlcNAc
# How it was run: as §1
# [34] = molecular target: Gal(b1-4)GlcNAc(b1-3)Gal(b1-3)GalNAc
# How it was run: as §1
# [35] = molecular target: Gal(b1-4)GlcNAc(b1-3)Gal(b1-3)GlcNAc
# How it was run: as §1
# [36] = molecular target: Gal(b1-4)GlcNAc(b1-3)Gal(b1-4)Glc
# How it was run: as §1
# [37] = molecular target: Gal(b1-4)GlcNAc(b1-3)Gal(b1-4)GlcNAc
# How it was run: as §1
# [38] = molecular target: Gal(b1-4)GlcNAc(b1-3)Gal(b1-4)GlcNAc(b1-2)Man(a1-3)[Gal(b1-4)GlcNAc(b1-3)Gal(b1-4)GlcNAc(b1-2)Man(a1-6)]Man(b1-4)GlcNAc(b1-4)GlcNAc
# How it was run: as §1
binder,measurement,setting,value
B1,glycan array binding signal (z-score),[1],1
same,glycan array binding signal (z-score),[2],-0.288
same,glycan array binding signal (z-score),[3],-0.32
same,glycan array binding signal (z-score),[4],-0.312
same,glycan array binding signal (z-score),[5],-0.318
same,glycan array binding signal (z-score),[6],-0.316
same,glycan array binding signal (z-score),[7],-0.313
same,glycan array binding signal (z-score),[8],-0.307
same,glycan array binding signal (z-score),[9],-0.315
same,glycan array binding signal (z-score),[10],-0.315
same,glycan array binding signal (z-score),[11],-0.318
same,glycan array binding signal (z-score),[12],-0.324
same,glycan array binding signal (z-score),[13],-0.332
same,glycan array binding signal (z-score),[14],-0.297
same,glycan array binding signal (z-score),[15],-0.307
same,glycan array binding signal (z-score),[16],-0.316
same,glycan array binding signal (z-score),[17],-0.216
same,glycan array binding signal (z-score),[18],0.102
same,glycan array binding signal (z-score),[19],0.102
same,glycan array binding signal (z-score),[20],-0.316
same,glycan array binding signal (z-score),[21],-0.308
same,glycan array binding signal (z-score),[22],-0.29
same,glycan array binding signal (z-score),[23],-0.318
same,glycan array binding signal (z-score),[24],-0.304
same,glycan array binding signal (z-score),[25],-0.316
same,glycan array binding signal (z-score),[26],-0.265
same,glycan array binding signal (z-score),[27],-0.309
same,glycan array binding signal (z-score),[28],-0.312
same,glycan array binding signal (z-score),[29],-0.316
same,glycan array binding signal (z-score),[30],-0.303
same,glycan array binding signal (z-score),[31],1.21
same,glycan array binding signal (z-score),[32],-0.297
same,glycan array binding signal (z-score),[33],-0.304
same,glycan array binding signal (z-score),[34],-0.308
same,glycan array binding signal (z-score),[35],-0.3
same,glycan array binding signal (z-score),[36],-0.306
same,glycan array binding signal (z-score),[37],-0.319
same,glycan array binding signal (z-score),[38],-0.111
